From the BET-seq Pho4 binding data (Le et al. 2018)
The other results are listed elsewhere or left out. The energies were worked out here from pooled read counts, against the library average; single values are noisy.

The sequences below were run against T1, Pho4 (S. cerevisiae) (UniProt P07270) (assay: relative binding free energy (BET-seq); higher = weaker binding). Settings: reference: library average.
T1 sequence: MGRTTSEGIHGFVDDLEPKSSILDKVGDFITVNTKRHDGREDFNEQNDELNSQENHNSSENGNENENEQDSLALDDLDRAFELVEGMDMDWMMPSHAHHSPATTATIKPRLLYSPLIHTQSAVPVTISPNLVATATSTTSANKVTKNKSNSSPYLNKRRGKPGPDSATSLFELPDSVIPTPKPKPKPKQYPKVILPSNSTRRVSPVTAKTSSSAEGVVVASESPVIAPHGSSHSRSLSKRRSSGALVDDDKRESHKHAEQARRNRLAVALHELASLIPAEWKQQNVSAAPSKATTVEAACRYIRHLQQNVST

Row | Sequence | relative binding free energy [kcal/mol]
1 | TCGGTCACGTGAGAGT | 0.3
2 | TGTGCCACGTGTTAAT | -0.03
3 | CATGGCACGTGAGGGC | 0.05
4 | CTACTCACGTGGGTGT | 0.08
5 | AGACTCACGTGGGTGT | 0.08
6 | GTCGTCACGTGTGGGC | 0.21
7 | CAAGGCACGTGATTGG | -0.02
8 | AAGGACACGTGTGTTA | -0.04
9 | GGCTACACGTGGGCGT | 0.08
10 | TGGAGCACGTGCTAGT | -0.17
11 | GCTGGCACGTGGATAG | -0.05
12 | CTTAACACGTGGGGGG | -0.1
13 | AGTTTCACGTGGTCGT | 0.08
14 | TGGTACACGTGTATAA | 0.03
15 | TTAAACACGTGAGCGG | 0.35
16 | GAGTGCACGTGATGGC | 0.11
17 | TTCCGCACGTGTTTGT | -0.06
18 | CGTGGCACGTGCGATG | -0.2
19 | TTTGACACGTGGTAAT | -0.12
20 | TGTTCCACGTGGGCGG | -0.15
21 | GATGCCACGTGTGTTA | 0.07

Row | Sequence | relative binding free energy [kcal/mol]
22 | ACCGGCACGTGTGAGG | 0.04
23 | AAAAGCACGTGGAAGG | 0.01
24 | GATTGCACGTGGTGGA | 0.02
25 | ATCTGCACGTGTTAGG | -0.09
26 | AGGAGCACGTGCATGG | -0.28
27 | TCGTTCACGTGGAGAG | 0.38
28 | AAGTTCACGTGAAGGG | 0.48
29 | ATGGTCACGTGAGGCG | 0.26
30 | TAGGGCACGTGTCGGG | 0
31 | TGGCACACGTGTATTG | -0.01
32 | ATATACACGTGAGGTT | 0.18
33 | TGATTCACGTGGGAGG | 0.19
34 | CGGGACACGTGTTGAG | 0.15
35 | TCAGTCACGTGTGCGT | 0.04
36 | GGGAGCACGTGTTGAG | 0.02
37 | TTTGGCACGTGGCTTC | -0.15
38 | TTGTACACGTGTCGAG | 0.09
39 | TGACACACGTGGGAGG | -0.1
40 | CGAGCCACGTGGTGTT | 0.03
41 | TAGCGCACGTGGGTGA | -0.23
42 | ACATGCACGTGGGGGA | -0.08

Row | Sequence | relative binding free energy [kcal/mol]
43 | TGAATCACGTGTGGCT | 0.08
44 | TTTTACACGTGTCGTT | 0.01
45 | GGGTACACGTGTGTCT | 0.14
46 | TGCTGCACGTGCGTAT | -0.04
47 | TGTATCACGTGTAGTG | 0.11
48 | GGGACCACGTGTGTTG | -0.04
49 | CTATGCACGTGTTGTG | -0.09
50 | CGGATCACGTGGTCGT | 0.06
51 | TGTCGCACGTGTCTTG | -0.11
52 | TTTATCACGTGTTGAT | 0.14
53 | TTTTGCACGTGACACG | 0.13
54 | GCATGCACGTGTGGGT | 0.03
55 | GTGGACACGTGACTGT | 0.19
56 | TTGGCCACGTGGCTAG | 0.03
57 | TTCTACACGTGGGGGA | -0.09
58 | TGTCGCACGTGATGGC | 0.08
59 | TGGCCCACGTGGTGTT | -0.26
60 | GGATCCACGTGGGCGG | -0.14
61 | TGTTACACGTGCGGAG | 0.25
62 | CGGCGCACGTGAGGGA | 0.08
63 | TTCTTCACGTGTGTCT | 0.25
